Assay results as given in patent US8383125B2, “Antimicrobial protein” (Agriculture Victoria Services Pty, Limited, priority 2006, dated 2013).

System: gram-negative bacteria, gram positive bacteria and a fungus
Details: summary of Table 1; for MIC against gram-negative bacteria as a class: gram-negative bacteria tested

Substance | MIC against Bacillus subtilis, Streptococcus pyogenes, and Streptococcus equi equi | MIC against E. coli, Pseudomonas spp. including P. aeruginosa and Proteus vulgaris | MIC against all microorganisms tested | MIC against gram-negative bacteria as a class
KRGFGKKLRKRLKKFRNSIKKRLKNFNVVIPIPLP-NH2 [SEQ ID NO: 2] | less than 2.5 μg/ml | less than 2.5 μg/ml | less than 10 μg/ml | less than 5 μg/ml
KRGLWESLKRKATKLGDDIRNTLRNFKIKFPVPRQ-NH2 [SEQ ID NO: 19] |  |  |  | > 5.0 µg/mL

Where no end group is shown, it is not given here.
